The full ranking holds about 33,000 sequences; the median of “E-score (-0.5 to 0.5)” is about -0.016, and the highest 2% start at about 0.32. The list shows a part of the results.
target: T1, Stp1 (UniProt B3LFK1); experiment: PBM E-score (8-mer binding enrichment) (E-score (-0.5 to 0.5)); higher = stronger / more preferred TF binding; most listed sequences are background and not binding sites; conditions: protein concentration: 200 nM; construct: GST-full length
T1 sequence: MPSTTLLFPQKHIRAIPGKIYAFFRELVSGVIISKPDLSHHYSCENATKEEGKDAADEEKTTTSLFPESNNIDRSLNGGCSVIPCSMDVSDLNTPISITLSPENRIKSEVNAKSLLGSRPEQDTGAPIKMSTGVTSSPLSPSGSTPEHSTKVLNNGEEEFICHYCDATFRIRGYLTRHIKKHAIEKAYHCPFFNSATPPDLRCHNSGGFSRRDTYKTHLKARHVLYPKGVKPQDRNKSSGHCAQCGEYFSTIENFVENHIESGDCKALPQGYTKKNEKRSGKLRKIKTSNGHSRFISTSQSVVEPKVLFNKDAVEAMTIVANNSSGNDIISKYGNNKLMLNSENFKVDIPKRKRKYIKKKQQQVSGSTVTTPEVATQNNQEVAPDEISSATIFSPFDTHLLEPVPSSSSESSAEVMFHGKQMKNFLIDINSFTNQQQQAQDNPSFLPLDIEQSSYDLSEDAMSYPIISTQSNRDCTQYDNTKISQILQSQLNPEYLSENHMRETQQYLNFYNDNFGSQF
Method: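 Universal 'all 10-mer' protein binding microarrays (Agilent AMADID 015681) probed with GST-tagged S. cerevisiae TFs (full-length or DBD) made by in vitro transcription/translation (PURExpress), about 100-200 nM. Bound TF was detected with fluorescent anti-GST. Each ungapped 8-mer (which stands for itself and its reverse complement) is scored by the PBM enrichment score (E-score), a modified Wilcoxon-Mann-Whitney statistic from -0.5 to +0.5, computed with the Universal PBM Analysis Suite. Scale: above 0.35 generally sequence-specific binding.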

| Sequence | PBM E-score |
| --- | --- |
| TCTTGGCA | 0.0772 |
| AATCTAAG | 0.0303 |
| AGTTTAAT | 0.148 |
| CTTGTACA | 0.0194 |
| ATTCACCA | -0.0152 |
| CTACACCA | -0.0664 |
| AAACGAGC | 0.149 |
| ACACGTCT | 0.0505 |
| CCAACATC | -0.127 |
| GGGCAAAC | -0.249 |
| TAGCCGGA | -0.0486 |
| CCCAGAAA | -0.0554 |
| AAGGCTAC | 0.0499 |
| ACCAAGCC | -0.104 |
| AGTTGTGG | 0.096 |
| CTCGGCAC | 0.3 |
| ACGTGTGG | 0.15 |
| CGTTCTGC | 0.173 |
| CGGGAACA | 0.0961 |
| CCAAGCTA | -0.299 |
| AAATAGAG | 0.0948 |
| GAAGAGTA | 0.117 |
| GACGCCAA | -0.17 |
| AACGACAG | 0.0109 |
| CAGACTTA | -0.2 |

| Sequence | PBM E-score |
| --- | --- |
| CGCGGTAG | 0.0224 |
| GCTACAGA | -0.185 |
| CCTGACCA | 0.0234 |
| TGTGGCAA | 0.193 |
| GACTCCAA | -0.258 |
| CAAGACTA | -0.241 |
| CATGGGAG | -0.212 |
| GATATCAA | 0.161 |
| GAACTGCA | 0.0883 |
| ATCTCAAA | 0.117 |
| GCGACAAA | 0.14 |
| ACACTGAA | 0.259 |
| ACCTCCCC | -0.202 |
| CCCGCCCG | 0.0222 |
| ACGCTCCA | 0.0827 |
| ATACCTCC | -0.265 |
| GCGGTAAA | 0.266 |
| TCATACCA | 0.0532 |
| ACAGGATA | 0.086 |
| AACATACC | -0.0361 |
| TCTCCGAA | -0.0131 |
| AGATTGAA | 0.0661 |
| CCACAATA | -0.0649 |
| CTAATTGA | 0.0893 |
| CGTAGGCA | -0.00045 |

| Sequence | PBM E-score |
| --- | --- |
| AATGGCTC | 0.066 |
| GCAATCGC | 0.0377 |
| ATCTGATA | -0.106 |
| ATTGTCTA | 0.155 |
| CTCGGACA | -0.18 |
| GCATACCC | -0.0496 |
| CTCTGCCA | -0.168 |
| CAAACGTC | -0.0561 |
| CCTAACTC | -0.21 |
| GCTCGTTA | -0.0232 |
| ATAACAAC | 0.0997 |
| ATATTAAC | 0.282 |
| ATCGCCTC | 0.356 |
| ATAAACCA | 0.0831 |
| AAAGTATC | 0.118 |
| ACTGCCGG | 0.0822 |
| AGCATTAC | -0.0767 |
| AGTGCTTC | -0.234 |
| GGGATGAA | -0.138 |
| AAAACTTC | 0.1 |
| GAAGGTGA | 0.0707 |
| ACTACTGA | -0.0374 |
| GCTGGAAA | 0.0632 |
| GAGGCATA | 0.224 |
| CATTTCAA | 0.13 |

| Sequence | PBM E-score |
| --- | --- |
| AGGAATAG | -0.00933 |
| ACTCACAG | -0.05 |
| CTCCGATC | -0.191 |
| CTCGGCCC | -0.176 |
| TGCCTGAA | -0.177 |
| AATCTCCG | 0.0641 |
| AAGGCCGA | 0.0988 |
| ACCTACGC | -0.0171 |
| CGGCCTCC | -0.107 |
| GAATAGGC | 0.04 |
| AAACGATC | 0.0154 |
| CGCGAACG | 0.103 |
| AGCTGACC | -0.263 |
| AGCATGAT | -0.123 |
| GGGATCCC | -0.172 |
| ATGCCAGC | -0.179 |
| CAGTCTCA | 0.0195 |
| AGGGCACA | 0.334 |
| GATCCTCA | -0.093 |
| ATGGACGC | 0.164 |
| AGACGTAG | -0.139 |
| AGTAACAT | 0.0488 |
| TAACCGAA | -0.0418 |
| CGCTTAAG | 0.0625 |
| ATCTGATC | 0.0183 |

| Sequence | PBM E-score |
| --- | --- |
| CCGTCGCC | 0.3 |
| GGTGAATA | 0.0219 |
| AAACAGAC | 0.0566 |
| ACGGACTA | 0.0284 |
| TGCACGCA | -0.0286 |
| CCAAGAAA | 0.0473 |
| AATACTAA | 0.102 |
| AGGGCATC | 0.11 |
| CATGCGTA | 0.0493 |
| GGTAGGAA | -0.0947 |
| ATCAAAAT | 0.151 |
| AACGTTCA | -0.263 |
| CCAAGGTC | -0.0943 |
| GCGGTCTA | -0.0316 |
| AGCAATTG | 0.149 |
| ACGCAGCT | -0.0862 |
| CACTATAA | -0.00554 |
| ATATACTC | -0.156 |
| AGCGTATA | 0.109 |
| AAGCCGGC | -0.0268 |
| GGAACCAC | -0.078 |
| CATCCAGG | -0.122 |
| AGCTCAGG | -0.13 |
| AGTTTTGG | -0.0431 |
| CCTTGTAC | 0.0435 |

| Sequence | PBM E-score |
| --- | --- |
| CCCCATAC | -0.00995 |
| CGCTGATC | -0.0938 |
| GTGACCTA | -0.238 |
| CGTGGTAG | 0.0444 |
| AAATCCGA | -0.0377 |
| GCCAGCCA | -0.117 |
| ATGTACCA | -0.0865 |
| CAACTACA | -0.00193 |
| CCCTGGGA | -0.262 |
| GACATGGA | -0.0837 |
| CCTGGAGA | -3e-05 |
| CCTCCTCC | -0.178 |
| GATGTGAC | -0.15 |
| CACTCGAG | -0.0245 |
| GATCGATC | -0.136 |
| CGGTGGAC | -0.15 |
| TACCCGCA | 0.241 |
| CAATGGAG | -0.126 |
| CAAGAAAA | 0.096 |
| AGTCACCG | -0.181 |
| AAAGGGAT | -0.139 |
| GCTTACAA | 0.092 |
| AGCCTCGA | -0.172 |
| ACCCGCGG | 0.228 |
| CTCTCCTC | -0.318 |

| Sequence | PBM E-score |
| --- | --- |
| CGTTCTAC | -0.0641 |
| AGAAAGCC | 0.17 |
| GACTTGAA | -0.171 |
| CCCTGAAG | -0.11 |
| AGAAACCC | 0.0212 |
| AGCAGCCA | 0.0221 |
| TAATGTAA | 0.0488 |
| AAGGGCCG | 0.0849 |
| GGTACCCA | -0.177 |
| CGAGCCGA | 0.124 |
| ATGACTCC | -0.185 |
| CTTAGTGA | 0.03 |
| AGACCATA | 0.159 |
| CTCGGGCA | 0.0927 |
| GCAAGTCC | -0.142 |
| CCGCTACA | -0.0852 |
| ATTACCAA | 0.177 |
| AACATGCC | 0.164 |
| ATGCGAAG | 0.0622 |
| CCAAAATA | 0.139 |
| TCCCCCGA | -0.345 |
| ATACTGAG | 0.162 |
| CATGTCAC | 0.0114 |
| AATCGATG | 0.174 |
| AAAGGTAC | -0.00049 |

| Sequence | PBM E-score |
| --- | --- |
| CAACAGAA | -0.11 |
| ATTAGAAG | 0.0611 |
| AAATCGAA | 0.0881 |
| GATGGTTA | -0.124 |
| CAGACAAG | -0.0459 |
| CAGGCCAG | -0.0909 |
| CCAGGAGG | -0.109 |
| AGGTTGCA | 0.169 |
| ATCCGAGG | 0.0595 |
| CAAATACG | 0.157 |
| CGGGGTTC | -0.251 |
| CAGTATAC | 0.0563 |
| AACGAATG | 0.0946 |
| AAAGGGAA | -0.116 |
| GGGGGAAA | -0.276 |
| CTAAATGC | 0.146 |
| GGCGCCCA | 0.311 |
| CTGGTGGA | -0.209 |
| AAATCATG | 0.0843 |
| CCGTAAAG | 0.13 |
| CGTAGACA | 0.0241 |
| TGCCCCAA | 0.00852 |
| GAGGTTAC | -0.11 |
| CGCCGAGC | 0.248 |
| CCTTGTGC | -0.0169 |

| Sequence | PBM E-score |
| --- | --- |
| GAAAATAC | 0.117 |
| CAAAGAGC | 0.0667 |
| GGAGCCCC | -0.263 |
| CTTTTCAA | 0.105 |
| ATTCAGCA | -0.143 |
| ACCGCGTA | 0.051 |
| AGCGCACT | -0.267 |
| ACCATCGG | -0.256 |
| AACGATCT | -0.0536 |
| GCTACTCA | -0.1 |
| ATACAGGA | 0.0874 |
| CCAACGGA | 0.063 |
| CCGGTCAC | -0.157 |
| AGAAACTC | -0.0229 |
| CTCAACTC | -0.205 |
| AGAAACAT | 0.0325 |
| GCATAGAC | -0.0398 |
| GCACGAGC | 0.0963 |
| ACGTTCGG | -0.0338 |
